The source of these data is paper PMC7819943, “Rice protein-binding microarrays: a tool to detect cis-acting elements near promoter regions in rice”.

Some of the results follow.

The target of this test is T1, OsWOX13 (Oryza sativa, UniProt Q5QMM3 1-267).
T1 sequence: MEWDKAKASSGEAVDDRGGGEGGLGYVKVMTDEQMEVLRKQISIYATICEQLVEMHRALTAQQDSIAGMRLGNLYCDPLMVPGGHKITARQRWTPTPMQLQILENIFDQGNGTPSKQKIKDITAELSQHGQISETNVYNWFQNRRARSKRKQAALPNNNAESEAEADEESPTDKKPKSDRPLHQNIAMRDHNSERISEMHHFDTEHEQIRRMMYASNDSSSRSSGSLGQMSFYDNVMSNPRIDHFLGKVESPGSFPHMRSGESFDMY
The test can be described thus: protein-binding microarray (RPBM); PBS, 2% BSA, 51.3 ng/ul salmon testes DNA, 50 uM zinc acetate, 200 nM TF, 25 C, 1 h; high values mean tight binding. The following applies: protein: recombinant; tags: N-terminal polyhistidine and DsRed monomer fusion (pET32a); label: CyDye5-dUTP incorporated in the synthesized complementary strand; 3' TTTTT single-stranded linker to array surface; dsDNA, one strand shown. The procedure, abridged:
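Binding signal is reported as fluorescence intensity per feature (arbitrary units) from an Axon 4000B scanner. Incubation used 200 nM of each Ni–NTA-purified, N-terminally polyhistidine- and DsRed-fused transcription factor from E. coli BL21-CodonPlus on a double-stranded custom Agilent array for 1 h at 25 °C, with 50 µM zinc acetate in the buffer, followed by washing.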
For the sequence “ATGCGATTTTAATTAACCGTGCAGAATTCTGAATTCCCAACGGAGTCACCTAGTGCAG”, the binding signal was 10200 fluorescence intensity (a.u.).

Turning to “GCCAACAAGTATATGATTGCGACATTTGTACGGTGACAACCGGAGTCACCTAGTGCAG”, the binding signal was 5310 fluorescence intensity (a.u.).

As for “AGACTATTTGGAGAATTAATTGATCACAACTAGACATTCACGGAGTCACCTAGTGCAG”, the binding signal was 16100 fluorescence intensity (a.u.).

For the sequence “CAAATAATAGACTGATTATAATTCTCAATCGGCTAAAACCCGGAGTCACCTAGTGCAG”, the binding signal was 33000 fluorescence intensity (a.u.).

For “ATCCCGATTAACTGAACATGAAACAAAGCCAATCTCTGGTCGGAGTCACCTAGTGCAG”, the binding signal is 9540 fluorescence intensity (a.u.).

Turning to “GTTCATTAATTACAAGGTACTAATACCTATTAATATCTCCCGGAGTCACCTAGTGCAG”, the binding signal is 14600 fluorescence intensity (a.u.).

As for “AAATATTAATTACTATATTTTCAATAAACACTCGCATTTACGGAGTCACCTAGTGCAG”, the binding signal is 12500 fluorescence intensity (a.u.).

For “CTTATTTTAATTTCAATTTATTTTGTTAGAACTATTTTCACGGAGTCACCTAGTGCAG”, the binding signal was 16000 fluorescence intensity (a.u.).

Regarding “GAAATAAGTTATAAATAATTAAGATGATGTGGTTTATAACCGGAGTCACCTAGTGCAG”, the binding signal was 5300 fluorescence intensity (a.u.).

Consider “TCCATGATTTAATAATGTTGTGCTATAGTAAACATTTGCTCGGAGTCACCTAGTGCAG”, for which the binding signal was 33900 fluorescence intensity (a.u.).

For the sequence “GGCCTAAATTATTACTCCGTATTCTATTGTTAACGCCGTTCGGAGTCACCTAGTGCAG”, the binding signal is 9550 fluorescence intensity (a.u.).

Take “ATTAATTATGTGCTAATAGGTGGTGTTTGAAACTCATGTACGGAGTCACCTAGTGCAG”: the binding signal was 37000 fluorescence intensity (a.u.).

Turning to “AAAATTCAATCTAGCTTTCTAATAGCCCATCTTTGTTTAACGGAGTCACCTAGTGCAG”, the binding signal is 5690 ± 65.8 fluorescence intensity (a.u.).

With “TGAAGATTGAAGAGGAGGATGGATGGGGCGCAGCGCAATGCGGAGTCACCTAGTGCAG”, the binding signal was 9110 fluorescence intensity (a.u.).

Take “CTTTGTAAATTAAATTAAAGTGCTCGAAAATTTTATATTTCGGAGTCACCTAGTGCAG”: the binding signal is 3160 fluorescence intensity (a.u.).

For the sequence “TGCTAACCGTGTAATTGAGCGGACCACCTGTTAGTTTTGGCGGAGTCACCTAGTGCAG”, the binding signal was 11700 fluorescence intensity (a.u.).

As to “CCGGATAATTGTTTTATTGAGTAGCATTGATGAGGTCTTGCGGAGTCACCTAGTGCAG”, the binding signal was 23900 fluorescence intensity (a.u.).

Consider “CTCCATCATTGACACGAGCTTGCTGTTAATTTGAGCCCCTCGGAGTCACCTAGTGCAG”, for which the binding signal was 7920 fluorescence intensity (a.u.).

Consider “TATATATATATAATTATGCATCCTGGTTAGCAATTAATGTCGGAGTCACCTAGTGCAG”, for which the binding signal is 3400 fluorescence intensity (a.u.).

In the case of “GTGTTAATGGGATTGTGAGTATGATGTTGCGGGTAGTGATCGGAGTCACCTAGTGCAG”, the binding signal is 9870 fluorescence intensity (a.u.).

For the sequence “ATAAATTAATTTATAGGTAACATTTATATATGTATTCTTACGGAGTCACCTAGTGCAG”, the binding signal was 47800 fluorescence intensity (a.u.).

On to “AGGTGTGATGATAAAATTATTAGTACATGACTCAACCTAACGGAGTCACCTAGTGCAG”, for which the binding signal is 4500 fluorescence intensity (a.u.).

Take “TCTGATTCAAACATAATTGCCAAAGCATCAAGTTATTGTGCGGAGTCACCTAGTGCAG”: the binding signal is 27500 fluorescence intensity (a.u.).

Regarding “AATGTTCGATTTGATTTGAGTTCATTCAACATCTTTTGTCCGGAGTCACCTAGTGCAG”, the binding signal was 4330 fluorescence intensity (a.u.).

“TGTGATTGAGGGCTACGAATTATAATCTGTAAAGTGCACTCGGAGTCACCTAGTGCAG”: the binding signal is 45200 fluorescence intensity (a.u.).

In the case of “GTGTTTTGTCTTGATTTGTTCACATGGCACAGTAGTTAGCCGGAGTCACCTAGTGCAG”, the binding signal was 5340 fluorescence intensity (a.u.).

For “TGTTCCGTGATTAAAACAACAACAGCGCACATACGATACACGGAGTCACCTAGTGCAG”, the binding signal is 6110 fluorescence intensity (a.u.).

Regarding “CTATTCACTCTATAATTATATATTGCCGATAAAATTCATCCGGAGTCACCTAGTGCAG”, the binding signal was 5460 fluorescence intensity (a.u.).

Regarding “CTACCAGCAGGATGACATTAACCTGTATTTATTTCGTTTTCGGAGTCACCTAGTGCAG”, the binding signal was 3360 fluorescence intensity (a.u.).

For the sequence “AAATCGAACAAATTATTATTGACTTTGATCTGCCGCACTTCGGAGTCACCTAGTGCAG”, the binding signal is 3190 fluorescence intensity (a.u.).

As to “CCCTAGACAGATCAGCTTTGGTGTCTTGGTGGTTGTTGTCCGGAGTCACCTAGTGCAG”, the binding signal was 5440 fluorescence intensity (a.u.).

Regarding “TTTCGAATTTTAGTAATTTATAATTTGTATTTCTAATTAACGGAGTCACCTAGTGCAG”, the binding signal is 6110 fluorescence intensity (a.u.).

As to “TTTATAAATTGCAAAAGGTTCCTATTTAGTTTGGGCCGAACGGAGTCACCTAGTGCAG”, the binding signal was 5200 fluorescence intensity (a.u.).

Take “TTCCTAATTAGTTACTACCTCCGTTTCATATTATAAAACTCGGAGTCACCTAGTGCAG”: the binding signal is 16800 fluorescence intensity (a.u.).

Regarding “ACATGGGCCGATAATTGGATCTGAACGATACTCTGAATATCGGAGTCACCTAGTGCAG”, the binding signal is 4720 fluorescence intensity (a.u.).

As to “CATAAATCAATCGAGGCAGAAATATAGCCTGAGTTTCGCTCGGAGTCACCTAGTGCAG”, the binding signal was 9310 fluorescence intensity (a.u.).

Turning to “ATTAACACTAATTTACATCATTCTCAGCCTGTTTTCACTTCGGAGTCACCTAGTGCAG”, the binding signal is 19400 fluorescence intensity (a.u.).

As for “AAATCAATCTTGTCAAGTGATTGCATCAGGCTTATTTTCCCGGAGTCACCTAGTGCAG”, the binding signal is 26700 fluorescence intensity (a.u.).

Take “GACAAGTAATTATCACTTTAAATGTTTGAACTGAAATTTACGGAGTCACCTAGTGCAG”: the binding signal is 10800 fluorescence intensity (a.u.).

For “CATCCAATCAATAGGTAATAGAGACAGAATCCCTACTCCACGGAGTCACCTAGTGCAG”, the binding signal was 30300 fluorescence intensity (a.u.).

With “TAATATTGTAAATTTCTTGATTATCCAACTATTAGCACAGCGGAGTCACCTAGTGCAG”, the binding signal is 5360 fluorescence intensity (a.u.).

For “ACCTGCATTAATATCACTAATCAGTACAATTAGTTAGGAGCGGAGTCACCTAGTGCAG”, the binding signal is 5650 fluorescence intensity (a.u.).
